The supplement of paper PMC10338343
± gives the standard deviation. This is a selection; strong and weak results do not stand in their true shares.

Test system: MIWI (PIWIL1) piRISC loaded with L1MC piRNA (30 nt)
Test: pre-steady-state target cleavage rate (min^-1); MIWI and MILI are mouse PIWI proteins and EfPiwi is from a freshwater sponge; tags in brackets are library labels; higher = faster piRNA-guided slicing of the target
Conditions: guide: L1MC piRNA 5'p-UAACUAAAUACUAUGCAAGCUGUAGGUCCU
Method in brief: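 Active affinity-purified piRISC carrying one synthetic guide (1 nM) was mixed with a transcribed, DNA-blocked target RNA library […] in HEPES–potassium acetate buffer at 33 °C for 0–8 or 0–960 min, with or without 500 nM GTSF1 partner protein. Uncleaved targets were then sequenced and normalised to depth and to weakly complementary targets. Three trials were pooled, and k3 was capped at 0.0001 min^-1. A burst-and-steady-state fit was applied to obtain the pre-steady-state cleavage rate.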

[1] = auxiliary factor: 500 nM mouse GTSF1
[2] = auxiliary factor: none (no GTSF1)
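Further: 1 nM active piRISC with 0.1 nM target library at 33 °C single turnover.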

| Sequence | pre-steady-state target cleavage rate [1] | pre-steady-state target cleavage rate [2] |
| --- | --- | --- |
| UCCUGGAUGACCUUGCAUAGUAAUUAGUUA | 0.0312 ± 0.0094 | 0.00375 ± 0.0029 |
| UCCACCUACUGCUUGGAUAGUAUUUAGUUA | 1.14 ± 0.049 | 0.0503 ± 0.0082 |
| UGGACCAACAGCUUGCAUAGUAUUUUGUUA | 0.924 ± 0.055 | 0.0385 ± 0.0065 |
| UCCUGGAACAGCUUGCAUACUAUUUAGUAA | 0.167 ± 0.025 | 0.0135 ± 0.0039 |
| UCCUCCUAGAGCUUGCUUAGUAUUUAGUUA | 1.04 ± 0.059 | 0.0213 ± 0.0041 |
| UCCUGCUACUGCUUGCAUAGUAUAUAGUUA | 0.226 ± 0.024 | 0.0142 ± 0.0034 |
| UCGACCAUCAGCUUGCAUAGUAUUUAGUUA | 1.2 ± 0.043 | 0.0929 ± 0.016 |
| UCCUGGUACUGCUUGCUUAGUAUUUAGUUA | 0.627 ± 0.04 | 0.025 ± 0.0057 |
| UCCUCCUACAGCUUGCAUUGUAUUUAGUAA | 0.48 ± 0.022 | 0.0133 ± 0.003 |
| UCCUGGAUGUCCUUGCAUAGUAUUUAGUCA | 0.0473 ± 0.011 | 0.00568 ± 0.0021 |
| UCCUGGUACAGCUUGCAUUGAAUUUAGUUA | 0.114 ± 0.02 | 0.00906 ± 0.002 |
| ACGACCUACAGGUUGCAUAGUAUUUAGUUA | 1.29 ± 0.057 | 0.0656 ± 0.012 |
| UCCUGGUACAGCAUGCAUAGUAUUUAGAAA | 0.201 ± 0.035 | 0.00336 ± 0.0027 |
| UCCUGGAUGUCGAACGUAUGUUAAUAGUUA | < 0.0001 | < 0.0001 |
| AGGACCUACAGCUUAGCAUAGUAUUUAGUUA | 1.37 ± 0.052 | 0.0387 ± 0.011 |
| UCCUGGAACAGCUUGCUUAGUAUAUAGUUA | 0.544 ± 0.047 | 0.0195 ± 0.0056 |
| UCCUGGAACCAGCUUGCAUAGUAUUUAGUUA | 1.11 ± 0.073 | 0.0411 ± 0.008 |
| UCCUCCUACACCUUGCAUAGUAUUUAGAUA | 0.338 ± 0.064 | 0.0147 ± 0.0038 |
| UCGACCUACAGCUUGCAUAGCAUUUAGUUA | 0.467 ± 0.022 | 0.0289 ± 0.0056 |
| UCCUGCUACAGGCUUGCAUAGUAUUUAGUUA | 0.88 ± 0.043 | 0.0342 ± 0.0051 |

| Sequence | pre-steady-state target cleavage rate [1] | pre-steady-state target cleavage rate [2] |
| --- | --- | --- |
| UCCUGGAUCAGCUUCAUAGUAUUUAGUUA | 0.954 ± 0.056 | 0.00538 ± 0.002 |
| UCCUGCUACAGCUUGCAUAAUAUUUAGUUA | 0.743 ± 0.047 | 0.0368 ± 0.0099 |
| UCCUCCUACAGCUUGCAUAGUAUAUAGUAA | 0.3 ± 0.037 | 0.00732 ± 0.0018 |
| UCCUCCUAGUCCUUGCAUAGUAUUUAGUUA | 0.868 ± 0.041 | 0.0152 ± 0.0035 |
| UCGACCUACAGCUAGCAUAGUAUUUUGUUA | 0.967 ± 0.049 | 0.013 ± 0.0031 |
| UCCUGGAUGUCGAUUGCAUAGUAUUUAGUUA | 0.0517 ± 0.008 | 0.00436 ± 0.002 |
| AGGACCAACAGCUUGCUUAGUAUUUAGUUA | 1.31 ± 0.066 | 0.0459 ± 0.0084 |
| UCGACCAACAGCAUGCAUAGUAUUUAGUUA | 1.33 ± 0.037 | 0.033 ± 0.0067 |
| UCCUGGAUCAGCUUGCAUAGUAUUUAGUUC [g2:g22:cont:t1C] | 1.14 ± 0.052 | 0.0609 ± 0.012 |
| UCCUGGAUGAGCUUGGCAUAGUAUUUAGUUA | 0.332 ± 0.083 | 0.00856 ± 0.0041 |
| UCCACCUACUGCUUGCAUAGUAUUUAGAUA | 0.253 ± 0.043 | 0.0104 ± 0.0021 |
| UCCACCUACACCUUGCAUAGUUUUUAGUUA | 0.249 ± 0.032 | 0.0171 ± 0.0033 |
| UCCUCCUACAGGAUGCAUAGUAUUUAGUUA | 1.05 ± 0.055 | 0.0111 ± 0.0022 |
| UCCUGGAUGUGCUUGCAUAGGAUUUAGUUA | 0.00451 ± 0.0028 | 0.00354 ± 0.0033 |
| UCCUGGAACAGCUUGCAUAGUAAUUAGAUA | 0.32 ± 0.049 | 0.00963 ± 0.0031 |
| UCCUGGAUCAGCUUGCAUGGUAUUUAGUUA | 1.03 ± 0.057 | 0.0491 ± 0.014 |
| UCCACCUACAGCUUGCAAAGUAUUUAGUUA | 0.937 ± 0.044 | 0.0318 ± 0.0069 |
| UCCUGGAUGAGCUUGCAUAGUUUUUAGAAA | 0.0136 ± 0.0075 | 0.00575 ± 0.0034 |
| UCCACCUACAGCUUGGAUAGUAUUUACUUA | 0.219 ± 0.025 | 0.0196 ± 0.0034 |
| AGCACCAACAGCUUGCAUAGUAUUUAGUUA | 1.03 ± 0.058 | 0.0664 ± 0.011 |

| Sequence | pre-steady-state target cleavage rate [1] | pre-steady-state target cleavage rate [2] |
| --- | --- | --- |
| UCCUCCUACAGUCUUGCAUAGUAUUUAGUUA | 0.834 ± 0.045 | 0.0343 ± 0.0054 |
| UCCUGGUACAUCUUGCAUAGUAUUUAGUUA | 0.672 ± 0.045 | 0.0421 ± 0.008 |
| UCCUGUUACAGCUUGCAUAGUAUUUAGUUA | 1.28 ± 0.058 | 0.0747 ± 0.013 |
| UCCUGGUACAGCUUGCUUAGUAUUUUGUUA | 0.241 ± 0.042 | 0.019 ± 0.0045 |
| UCGACGUACAGCUUGCAUAGUAUUUAGUUA | 1.56 ± 0.046 | 0.0711 ± 0.011 |
| UCCACCUACAGCUUGGCAUAGUAUUUAGUUA | 0.862 ± 0.13 | 0.0108 ± 0.0027 |
| UCCUGGAUCAGGUUGCUUAGUAUUUAGUUA | 0.194 ± 0.021 | 0.00489 ± 0.0024 |
| UCCACCUACUGCUUGCUUAGUAUUUAGUUA | 0.816 ± 0.029 | 0.0276 ± 0.0058 |
| UCCUGGAUCAGCUUGCAUAGCAUUUAGUUA | 0.3 ± 0.021 | 0.0265 ± 0.008 |
| UCCUGGUAACAGCUUGCAUAGUAUUUAGUUA | 0.766 ± 0.031 | 0.0948 ± 0.023 |
| UGGACCUACAGCUUGCCUAGUAUUUAGUUA | 1.16 ± 0.069 | 0.0353 ± 0.006 |
| UCCUGCUCCAGCUUGCAUAGUAUUUAGUUA | 0.934 ± 0.053 | 0.052 ± 0.0079 |
| UCCACCUACAGCUUGCUUAGUAUUUAGAUA | 0.272 ± 0.035 | 0.00853 ± 0.0027 |
| AGGACCUACUGCUUGCAUAGUAAUUAGUUA | 0.749 ± 0.053 | 0.0336 ± 0.0073 |
| UCCUGGAACAGCUUGCAUAGUUUUUAGAAA | 0.149 ± 0.034 | 0.00541 ± 0.0038 |
| UCCUGCUACAGCUUGCAAAGAAUUUAGUUA | 0.234 ± 0.021 | 0.0127 ± 0.005 |
| UCGACCUACAGCUUGCAUAGUAUUUAUUUA | 0.472 ± 0.027 | 0.0752 ± 0.015 |
| UGGACCUACAGCUUGCAUAGUAAUUAGUAA | 0.422 ± 0.041 | 0.014 ± 0.0044 |
| UCCUCCUACACCUUGCAUAGUAUUUACAAA | 0.34 ± 0.05 | 0.00296 ± 0.0025 |
| UGGACCUACAGGAAGCAUAGUAUUUAGUAA | 0.573 ± 0.074 | 0.00377 ± 0.0021 |
